According to paper PMC9911399, “Two distinct binding modes provide the RNA-binding protein RbFox with extraordinary sequence specificity”:
Numbering of substitutions follows the chain as printed; changes in the protein carry UniProt numbers. Some of the results follow.

T1: RBFOX1 RRM RbFoxmut (Fox-RRM*) (Homo sapiens, UniProt Q9NWB1 109-208, R118D;E147R;N151S;E152T)
T1 sequence: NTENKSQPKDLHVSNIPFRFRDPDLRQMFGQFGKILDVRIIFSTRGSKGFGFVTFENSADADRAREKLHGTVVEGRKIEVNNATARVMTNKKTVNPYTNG

B1: UGCGAAA (DNA:RNA)
RNA: GGGAGACCGGAAUUCAGAUUGUCCUGCGAAAUUAAAUCCCGUCGUAGCCACCA
DNA 1: CAATCTGAATTCCGGTCTCCC
DNA 2: TGGTGGCTACGACGGGATT
B2: UUUCUGU (DNA:RNA)
RNA: B1 RNA with G26U, C27U, G28C, A29U, A30G, A31U
DNA 1: CAATCTGAATTCCGGTCTCCC
DNA 2: TGGTGGCTACGACGGGATT
B3: CUUAGGG (DNA:RNA)
RNA: GGGAGACCGGAAUUCAGAUUGUCCCUUAGGGUUAAAUCCCGUCGUAGCCACCA
DNA 1: CAATCTGAATTCCGGTCTCCC
DNA 2: TGGTGGCTACGACGGGATT
B4: CAGCCUC (DNA:RNA)
RNA: B3 RNA with U26A, U27G, A28C, G29C, G30U, G31C
DNA 1: CAATCTGAATTCCGGTCTCCC
DNA 2: TGGTGGCTACGACGGGATT
B5: CACGUCC (DNA:RNA)
RNA: B1 RNA with U25C, G26A, A29U, A30C, A31C
DNA 1: CAATCTGAATTCCGGTCTCCC
DNA 2: TGGTGGCTACGACGGGATT
B6: CCGAGGG (DNA:RNA)
RNA: B3 RNA with U26C, U27G
DNA 1: CAATCTGAATTCCGGTCTCCC
DNA 2: TGGTGGCTACGACGGGATT
B7: UCUAAGG (DNA:RNA)
RNA: B3 RNA with C25U, U26C, G29A
DNA 1: CAATCTGAATTCCGGTCTCCC
DNA 2: TGGTGGCTACGACGGGATT
B8: AGUCUAU (DNA:RNA)
RNA: B1 RNA with U25A, C27U, G28C, A29U, A31U
DNA 1: CAATCTGAATTCCGGTCTCCC
DNA 2: TGGTGGCTACGACGGGATT
B9: UGCCCGU (DNA:RNA)
RNA: B1 RNA with G28C, A29C, A30G, A31U
DNA 1: CAATCTGAATTCCGGTCTCCC
DNA 2: TGGTGGCTACGACGGGATT
B10: UUUCAAG (DNA:RNA)
RNA: B3 RNA with C25U, A28C, G29A, G30A
DNA 1: CAATCTGAATTCCGGTCTCCC
DNA 2: TGGTGGCTACGACGGGATT
B11: UAGGAAG (DNA:RNA)
RNA: B1 RNA with G26A, C27G, A31G
DNA 1: CAATCTGAATTCCGGTCTCCC
DNA 2: TGGTGGCTACGACGGGATT
B12: CUAUUGG (DNA:RNA)
RNA: B3 RNA with U27A, A28U, G29U
DNA 1: CAATCTGAATTCCGGTCTCCC
DNA 2: TGGTGGCTACGACGGGATT
B13: CUCCGGC (DNA:RNA)
RNA: B3 RNA with U27C, A28C, G31C
DNA 1: CAATCTGAATTCCGGTCTCCC
DNA 2: TGGTGGCTACGACGGGATT
B14: GAUACCA (DNA:RNA)
RNA: B3 RNA with C25G, U26A, G29C, G30C, G31A
DNA 1: CAATCTGAATTCCGGTCTCCC
DNA 2: TGGTGGCTACGACGGGATT
B15: GUCCUUC (DNA:RNA)
RNA: B3 RNA with C25G, U27C, A28C, G29U, G30U, G31C
DNA 1: CAATCTGAATTCCGGTCTCCC
DNA 2: TGGTGGCTACGACGGGATT
B16: CAUUUCA (DNA:RNA)
RNA: B3 RNA with U26A, A28U, G29U, G30C, G31A
DNA 1: CAATCTGAATTCCGGTCTCCC
DNA 2: TGGTGGCTACGACGGGATT
B17: AGACUCU (DNA:RNA)
RNA: B1 RNA with U25A, C27A, G28C, A29U, A30C, A31U
DNA 1: CAATCTGAATTCCGGTCTCCC
DNA 2: TGGTGGCTACGACGGGATT
B18: UGGGGUA (DNA:RNA)
RNA: B1 RNA with C27G, A29G, A30U
DNA 1: CAATCTGAATTCCGGTCTCCC
DNA 2: TGGTGGCTACGACGGGATT
B19: AAGAAAG (DNA:RNA)
RNA: B3 RNA with C25A, U26A, U27G, G29A, G30A
DNA 1: CAATCTGAATTCCGGTCTCCC
DNA 2: TGGTGGCTACGACGGGATT
B20: ACCUAGG (DNA:RNA)
RNA: B3 RNA with C25A, U26C, U27C, A28U, G29A
DNA 1: CAATCTGAATTCCGGTCTCCC
DNA 2: TGGTGGCTACGACGGGATT
B21: AAAGGAG (DNA:RNA)
RNA: B3 RNA with C25A, U26A, U27A, A28G, G30A
DNA 1: CAATCTGAATTCCGGTCTCCC
DNA 2: TGGTGGCTACGACGGGATT
B22: ACGGGCA (DNA:RNA)
RNA: B1 RNA with U25A, G26C, C27G, A29G, A30C
DNA 1: CAATCTGAATTCCGGTCTCCC
DNA 2: TGGTGGCTACGACGGGATT
B23: GACCCCC (DNA:RNA)
RNA: B1 RNA with U25G, G26A, G28C, A29C, A30C, A31C
DNA 1: CAATCTGAATTCCGGTCTCCC
DNA 2: TGGTGGCTACGACGGGATT
B24: UGGGUAG (DNA:RNA)
RNA: B1 RNA with C27G, A29U, A31G
DNA 1: CAATCTGAATTCCGGTCTCCC
DNA 2: TGGTGGCTACGACGGGATT
B25: AGUCCCA (DNA:RNA)
RNA: B1 RNA with U25A, C27U, G28C, A29C, A30C
DNA 1: CAATCTGAATTCCGGTCTCCC
DNA 2: TGGTGGCTACGACGGGATT
B26: CCCGGGG (DNA:RNA)
RNA: B3 RNA with U26C, U27C, A28G
DNA 1: CAATCTGAATTCCGGTCTCCC
DNA 2: TGGTGGCTACGACGGGATT
B27: UUAUGGA (DNA:RNA)
RNA: B3 RNA with C25U, U27A, A28U, G31A
DNA 1: CAATCTGAATTCCGGTCTCCC
DNA 2: TGGTGGCTACGACGGGATT
B28: UGUACAC (DNA:RNA)
RNA: B1 RNA with C27U, G28A, A29C, A31C
DNA 1: CAATCTGAATTCCGGTCTCCC
DNA 2: TGGTGGCTACGACGGGATT
B29: UGGUUCG (DNA:RNA)
RNA: B1 RNA with C27G, G28U, A29U, A30C, A31G
DNA 1: CAATCTGAATTCCGGTCTCCC
DNA 2: TGGTGGCTACGACGGGATT
B30: CCGAUGC (DNA:RNA)
RNA: B3 RNA with U26C, U27G, G29U, G31C
DNA 1: CAATCTGAATTCCGGTCTCCC
DNA 2: TGGTGGCTACGACGGGATT
B31: AAAGCUU (DNA:RNA)
RNA: B1 RNA with U25A, G26A, C27A, A29C, A30U, A31U
DNA 1: CAATCTGAATTCCGGTCTCCC
DNA 2: TGGTGGCTACGACGGGATT

Target: T1, RBFOX1 RRM RbFoxmut (Fox-RRM*)
Assay: EMSA; HiTS-Eq, 1 nM pool, 10 min; buffer printed only for the single-RNA assays: 10 mM Tris pH 7.5, 150 mM NaCl, 3.4 mM EDTA, 0.001% NP-40, 30 C
Details: tags: His6 N-terminal (pET28a); label: 5' 32P
In short: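 Purified RbFox RRM (wild type or mutant) was equilibrated for 10 min in 50 µL with 1 nM of a 5′-radiolabelled pool of RNA with 7 randomized nucleotides, its flanks annealed to DNA oligonucleotides, across increasing protein concentrations. Free RNA was separated by 8% native PAGE, excised, reverse-transcribed, PCR-barcoded and sequenced on an Illumina HiSeq 2500. Relative association constants came from read-count changes of each variant against the control reaction, normalised to the cognate motif.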

Binder | binding signal
B1 | 0.105 KA relative to UGCAUGU
B2 | 0.111 KA relative to UGCAUGU
B3 | 0.0704 KA relative to UGCAUGU
B4 | 0.0602 KA relative to UGCAUGU
B5 | 0.097 KA relative to UGCAUGU
B6 | 0.083 KA relative to UGCAUGU
B7 | 0.0828 KA relative to UGCAUGU
B8 | 0.0968 KA relative to UGCAUGU
B9 | 0.13 KA relative to UGCAUGU
B10 | 0.124 KA relative to UGCAUGU
B11 | 0.076 KA relative to UGCAUGU
B12 | 0.108 KA relative to UGCAUGU
B13 | 0.0953 KA relative to UGCAUGU
B14 | 0.0754 KA relative to UGCAUGU
B15 | 0.0592 KA relative to UGCAUGU
B16 | 0.169 KA relative to UGCAUGU

Binder | binding signal
B17 | 0.0373 KA relative to UGCAUGU
B18 | 0.214 KA relative to UGCAUGU
B19 | 0.106 KA relative to UGCAUGU
B20 | 0.108 KA relative to UGCAUGU
B21 | 0.0985 KA relative to UGCAUGU
B22 | 0.0886 KA relative to UGCAUGU
B23 | 0.0875 KA relative to UGCAUGU
B24 | 0.197 KA relative to UGCAUGU
B25 | 0.0636 KA relative to UGCAUGU
B26 | 0.0532 KA relative to UGCAUGU
B27 | 0.0526 KA relative to UGCAUGU
B28 | 0.0562 KA relative to UGCAUGU
B29 | 0.492 KA relative to UGCAUGU
B30 | 0.1 KA relative to UGCAUGU
B31 | 0.0811 KA relative to UGCAUGU
